In PubChem BioAssay (NCI):
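Dose response: 5 concentrations. Exposure: 48 h. Format: 96-well plates. Endpoint: linear interpolation; highest concentration if not reached. GI50: concentration for 50% inhibition of growth.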 For part of its entries the source gives two or more results. The list is limited to them. An entry can have further records. Records of one sample usually come from different ranges of test concentrations, which the source does not state; a value can be the end of its range. Records carry a tag for their origin. The letters are not those of the source and start again with each entry.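 TGI denotes the concentration required for complete inhibition of growth.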

Key:
Assay in all cases: NCI-60 cell line screen, 48 h
NCI-H460 lung = tested on: NCI-H460 lung
OVCAR-3 ovarian = tested on: OVCAR-3 ovarian
A549 NSCLC = tested on: A549 NSCLC
T-47D breast = tested on: T-47D breast
CAKI-1 renal = tested on: CAKI-1 renal
U251 CNS = tested on: U251 CNS
SF-268 CNS = tested on: SF-268 CNS
LOX IMVI melanoma = tested on: LOX IMVI melanoma
MCF7 breast = tested on: MCF7 breast
NCI-H522 lung = tested on: NCI-H522 lung
A498 renal = tested on: A498 renal
NCI-H226 lung = tested on: NCI-H226 lung
SF-539 CNS = tested on: SF-539 CNS
COLO 205 colon = tested on: COLO 205 colon
MOLT-4 leukemia = tested on: MOLT-4 leukemia
EKVX NSCLC = tested on: EKVX NSCLC
HS 578T breast = tested on: HS 578T breast
OVCAR-4 ovarian = tested on: OVCAR-4 ovarian
OVCAR-5 ovarian = tested on: OVCAR-5 ovarian
NCI-H23 lung = tested on: NCI-H23 lung
MALME-3M melanoma = tested on: MALME-3M melanoma
UACC-257 melanoma = tested on: UACC-257 melanoma
HCT-116 colon = tested on: HCT-116 colon
HL-60(TB) leukemia = tested on: HL-60(TB) leukemia
HOP-62 NSCLC = tested on: HOP-62 NSCLC
UO-31 renal = tested on: UO-31 renal
OVCAR-8 ovarian = tested on: OVCAR-8 ovarian
786-0 renal = tested on: 786-0 renal

Cc1nc(Nc2ncc(C(=O)Nc3c(C)cccc3Cl)s2)cc(N2CCN(CCO)CC2)n1
TGI (NCI-H460 lung): 20 µM [sample A, 1 test] and 25 µM [sample A, mean of 5 tests] and 31.4 µM [sample B, mean of 2 tests] and > 10 µM [sample C, mean of 2 tests]
GI50 (OVCAR-3 ovarian): 174 nM [sample A, 1 test] and 203 nM [sample A, mean of 5 tests] and 745 nM [sample B, mean of 2 tests] and 120 nM [sample C, mean of 2 tests]
TGI (OVCAR-3 ovarian): 20 µM [sample A, 1 test] and 19.2 µM [sample A, mean of 5 tests] and > 61.7 µM [sample B, mean of 2 tests] and > 10 µM [sample C, mean of 2 tests]
TGI (A549 NSCLC): 3.28 µM [sample A, 1 test] and 16.7 µM [sample A, mean of 5 tests] and 19.7 µM [sample B, mean of 2 tests] and > 10 µM [sample C, mean of 2 tests]
GI50 (T-47D breast): 411 nM [sample A, 1 test] and 185 nM [sample A, mean of 5 tests] and 1.5 µM [sample B, mean of 2 tests] and 95.6 nM [sample C, mean of 2 tests]
TGI (T-47D breast): 20 µM [sample A, 1 test] and 27.6 µM [sample A, mean of 5 tests] and 42.2 µM [sample B, mean of 2 tests] and > 10 µM [sample C, mean of 2 tests]
GI50 (CAKI-1 renal): 18.8 nM [sample A, 1 test] and 11.9 nM [sample A, mean of 4 tests] and < 10.4 nM [sample B, mean of 2 tests] and 17.2 nM [sample C, mean of 2 tests]
TGI (CAKI-1 renal): 873 nM [sample A, 1 test] and 51.9 nM [sample A, mean of 4 tests] and 151 nM [sample B, mean of 2 tests] and 131 nM [sample C, mean of 2 tests]
TGI (U251 CNS): 20 µM [sample A, 1 test] and 19.7 µM [sample A, mean of 5 tests] and 21.8 µM [sample B, mean of 2 tests] and > 10 µM [sample C, mean of 2 tests]
TGI (SF-268 CNS): 20 µM [sample A, 1 test] and 24.5 µM [sample A, mean of 5 tests] and 25 µM [sample B, mean of 2 tests] and > 10 µM [sample C, mean of 2 tests]
TGI (LOX IMVI melanoma): 367 nM [sample A, 1 test] and 483 nM [sample A, mean of 5 tests] and 85 nM [sample B, mean of 2 tests] and 60.4 nM [sample C, mean of 2 tests]
GI50 (MCF7 breast): 8.32 µM [sample A, 1 test] and 12.6 µM [sample A, mean of 5 tests] and 12.3 µM [sample B, mean of 2 tests] and > 10 µM [sample C, mean of 2 tests]
TGI (MCF7 breast): 20 µM [sample A, 1 test] and 30.9 µM [sample A, mean of 5 tests] and 37.1 µM [sample B, mean of 2 tests] and > 10 µM [sample C, mean of 2 tests]
GI50 (NCI-H522 lung): 115 nM [sample A, 1 test] and 63.8 nM [sample A, mean of 5 tests] and 162 nM [sample B, mean of 2 tests] and < 18.4 nM [sample C, mean of 2 tests]
TGI (NCI-H522 lung): 15 µM [sample A, 1 test] and 8.12 µM [sample A, mean of 5 tests] and 14.5 µM [sample B, mean of 2 tests] and > 10 µM [sample C, mean of 2 tests]
GI50 (A498 renal): 22.4 nM [sample A, 1 test] and 32.8 nM [sample A, mean of 5 tests] and < 29.8 nM [sample B, mean of 2 tests] and 18.5 nM [sample C, mean of 2 tests]
TGI (A498 renal): 187 nM [sample A, 1 test] and 803 nM [sample A, mean of 5 tests] and 360 nM [sample B, mean of 2 tests] and 203 nM [sample C, mean of 2 tests]
GI50 (NCI-H226 lung): 46.4 nM [sample A, 1 test] and 550 nM [sample A, mean of 4 tests] and 3.43 µM [sample B, 1 test]
TGI (NCI-H226 lung): 20 µM [sample A, 1 test] and 21.8 µM [sample A, mean of 4 tests] and 36.7 µM [sample B, 1 test] and > 10 µM [sample C, mean of 2 tests]
TGI (SF-539 CNS): 13.7 µM [sample A, 1 test] and 6.15 µM [sample A, mean of 5 tests] and 14.2 µM [sample B, mean of 2 tests] and 2.05 µM [sample C, mean of 2 tests]
GI50 (COLO 205 colon): 37.1 nM [sample A, 1 test] and 20.4 nM [sample A, mean of 5 tests] and 65.1 nM [sample B, 1 test] and 75.9 nM [sample C, mean of 2 tests]
TGI (COLO 205 colon): 20 µM [sample A, 1 test] and 2.78 µM [sample A, mean of 5 tests] and 2.96 µM [sample B, 1 test] and > 2.7 µM [sample C, mean of 2 tests]
TGI (MOLT-4 leukemia): 20 µM [sample A, 1 test] and 44.9 µM [sample A, mean of 5 tests] and 39.9 µM [sample B, mean of 2 tests] and > 10 µM [sample C, mean of 2 tests]
TGI (EKVX NSCLC): 20 µM [sample A, 1 test] and 25 µM [sample A, mean of 5 tests] and > 66.4 µM [sample B, mean of 2 tests] and > 10 µM [sample C, mean of 2 tests]
GI50 (HS 578T breast): 25.1 nM [sample A, 1 test] and < 10.9 nM [sample A, mean of 5 tests] and < 15.9 nM [sample B, mean of 2 tests] and 2.65 nM [sample C, mean of 2 tests]
TGI (HS 578T breast): 20 µM [sample A, 1 test] and 58.5 nM [sample A, mean of 5 tests] and 18.6 nM [sample B, mean of 2 tests]
GI50 (OVCAR-4 ovarian): 7.06 µM [sample A, 1 test] and 7.59 µM [sample A, mean of 5 tests] and 7.94 µM [sample B, mean of 2 tests] and > 2.72 µM [sample C, mean of 2 tests]
TGI (OVCAR-4 ovarian): 20 µM [sample A, 1 test] and 51.9 µM [sample A, mean of 5 tests] and > 77.3 µM [sample B, mean of 2 tests] and > 10 µM [sample C, mean of 2 tests]
TGI (OVCAR-5 ovarian): 20 µM [sample A, 1 test] and 22.2 µM [sample A, mean of 5 tests] and 47.3 µM [sample B, mean of 2 tests] and > 10 µM [sample C, mean of 2 tests]
TGI (NCI-H23 lung): 20 µM [sample A, 1 test] and 20.8 µM [sample A, mean of 5 tests] and 19.2 µM [sample B, mean of 2 tests] and > 10 µM [sample C, mean of 2 tests]
TGI (MALME-3M melanoma): 20 µM [sample A, 1 test] and 17.9 µM [sample A, mean of 3 tests] and 25.7 µM [sample B, mean of 2 tests] and > 10 µM [sample C, mean of 2 tests]
TGI (UACC-257 melanoma): 17.4 µM [sample A, 1 test] and 18.9 µM [sample A, mean of 5 tests] and 38.5 µM [sample B, mean of 2 tests] and > 10 µM [sample C, mean of 2 tests]
GI50 (HCT-116 colon): 3.71 µM [sample A, 1 test] and 2.01 µM [sample A, mean of 4 tests] and 3.33 µM [sample B, mean of 2 tests] and 47.8 nM [sample C, mean of 2 tests]
TGI (HCT-116 colon): 20 µM [sample A, 1 test] and 18 µM [sample A, mean of 4 tests] and 16.3 µM [sample B, mean of 2 tests] and > 10 µM [sample C, mean of 2 tests]
GI50 (HL-60(TB) leukemia): 7.74 µM [sample A, 1 test] and 5.66 µM [sample A, mean of 5 tests] and 13.4 µM [sample B, mean of 2 tests] and > 8.51 µM [sample C, mean of 2 tests]
TGI (HL-60(TB) leukemia): 20 µM [sample A, 1 test] and 34 µM [sample A, mean of 5 tests] and 34.3 µM [sample B, mean of 2 tests] and > 10 µM [sample C, mean of 2 tests]
GI50 (HOP-62 NSCLC): 36.4 nM [sample A, 1 test] and 14.5 nM [sample A, mean of 5 tests] and 61.1 nM [sample B, mean of 2 tests] and 29.5 nM [sample C, mean of 2 tests]
TGI (HOP-62 NSCLC): 20 µM [sample A, 1 test] and 1.26 µM [sample A, mean of 5 tests] and 25.7 µM [sample B, mean of 2 tests] and > 10 µM [sample C, mean of 2 tests]
GI50 (UO-31 renal): 19.7 nM [sample A, 1 test] and 37.7 nM [sample A, mean of 5 tests] and 25.7 nM [sample B, mean of 2 tests] and 7.45 nM [sample C, 1 test]
TGI (UO-31 renal): 17 µM [sample A, 1 test] and 6.82 µM [sample A, mean of 5 tests] and 6.96 µM [sample B, mean of 2 tests] and 554 nM [sample C, 1 test]
TGI (OVCAR-8 ovarian): 508 nM [sample A, 1 test] and 3.62 µM [sample A, mean of 5 tests] and > 77.9 µM [sample B, mean of 2 tests] and > 10 µM [sample C, mean of 2 tests]
GI50 (786-0 renal): 123 nM [sample A, 1 test] and 63.7 nM [sample A, mean of 5 tests] and 56.1 nM [sample B, mean of 2 tests] and 31 nM [sample C, mean of 2 tests]
TGI (786-0 renal): 20 µM [sample A, 1 test] and 10.8 µM [sample A, mean of 5 tests] and 13.5 µM [sample B, mean of 2 tests] and > 10 µM [sample C, mean of 2 tests]
